The whole screen tested about 310,000 compounds, of which about 14,000 (4.5%) showed an effect of 50% or more. The effect is printed as a negative number. Some of the results follow.
These compounds were tested against human ether-à-go-go-related gene (hERG) potassium channel (human, UniProt Q12809) (assay: primary screen, population patch clamp on CHO cells stably expressing hERG).
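Note: peak tail current of the secondary pulse compared with the same well before compound.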

human ether-à-go-go-related gene (hERG) potassium channel, sequence (Q12809 whole entry, looked up): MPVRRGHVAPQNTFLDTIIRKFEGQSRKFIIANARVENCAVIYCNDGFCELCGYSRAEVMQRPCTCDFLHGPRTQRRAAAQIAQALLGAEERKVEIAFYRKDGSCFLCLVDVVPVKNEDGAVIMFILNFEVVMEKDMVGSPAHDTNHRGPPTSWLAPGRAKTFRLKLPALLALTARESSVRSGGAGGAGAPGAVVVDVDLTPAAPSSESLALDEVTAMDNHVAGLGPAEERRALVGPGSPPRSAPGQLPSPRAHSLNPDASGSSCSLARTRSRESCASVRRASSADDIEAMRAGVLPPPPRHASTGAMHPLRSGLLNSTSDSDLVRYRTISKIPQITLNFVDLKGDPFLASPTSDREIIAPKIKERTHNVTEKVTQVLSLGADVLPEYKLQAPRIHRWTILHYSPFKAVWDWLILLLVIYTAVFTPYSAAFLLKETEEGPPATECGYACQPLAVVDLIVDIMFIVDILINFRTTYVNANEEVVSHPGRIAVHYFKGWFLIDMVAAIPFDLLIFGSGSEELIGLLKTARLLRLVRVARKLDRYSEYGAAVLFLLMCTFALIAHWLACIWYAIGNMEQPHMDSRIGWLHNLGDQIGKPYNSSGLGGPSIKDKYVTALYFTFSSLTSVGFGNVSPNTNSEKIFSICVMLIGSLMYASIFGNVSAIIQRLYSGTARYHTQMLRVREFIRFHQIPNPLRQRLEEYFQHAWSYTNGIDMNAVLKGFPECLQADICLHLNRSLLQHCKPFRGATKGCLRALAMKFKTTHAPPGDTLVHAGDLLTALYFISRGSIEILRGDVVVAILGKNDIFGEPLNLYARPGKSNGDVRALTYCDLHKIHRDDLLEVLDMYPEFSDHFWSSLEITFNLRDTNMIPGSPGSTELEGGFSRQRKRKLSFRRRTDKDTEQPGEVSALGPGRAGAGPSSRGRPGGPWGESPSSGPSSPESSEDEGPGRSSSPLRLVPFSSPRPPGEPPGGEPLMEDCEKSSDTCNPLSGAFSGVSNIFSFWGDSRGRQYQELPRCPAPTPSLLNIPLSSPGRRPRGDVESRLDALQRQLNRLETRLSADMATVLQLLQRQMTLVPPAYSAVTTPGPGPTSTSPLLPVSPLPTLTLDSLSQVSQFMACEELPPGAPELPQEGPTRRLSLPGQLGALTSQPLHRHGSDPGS

| Structure (SMILES) | hERG current change (%, negative = inhibition) at 10uM [%] |
| --- | --- |
| O=C(NNC(=S)Nc1ccccc1)c1cccc(S(=O)(=O)N2CCOCC2)c1 | 15.3 |
| CCOC(=O)c1c(S(=O)(=O)N2CCC(C)CC2)c(C)n(C)c1C | -21.8 |
| Cc1cc(F)ccc1NC(=O)CCc1ccc(S(=O)(=O)N2CCOCC2)cc1 | -29.5 |
| Cc1ccc(CN2C3=NCCN3c3ccccc32)cc1.Cl | -68.3 |
| O=C(CNC(=O)c1cccs1)NCC(=O)OCC(=O)c1ccccc1 | 15.5 |
| CC(C(=O)NC(=O)NCc1ccccc1)N1C(=O)c2ccccc2C1=O (centres unmarked) | -3.41 |
| Cc1ccc(C2CCN(C(=O)Nc3ccc(F)cc3)C2)cc1 (centres unmarked) | 0.174 |
| COc1ccc(O)c(C(=O)CC(=O)c2ccccc2)c1 | 8 |
| O=C1c2ccccc2C(=O)N1CCN1CCc2ccccc21 | -3.28 |
| CC1(C)CC(=O)C=C(c2ccc(I)cc2)C1 | -2.72 |
| Fc1cccc(-c2n[nH]c(=S)n2-c2ccccc2)c1 | 23 |
| CCc1sc(NC(C)=O)nc1-c1ccccc1 | -1.16 |
| CCCCn1c(N)c(N(CCOC)C(=O)c2oc3ccc(OCC)cc3c2C)c(=O)[nH]c1=O | -22.6 |
| COc1cc(NC(=S)N2CCN(C(c3ccccc3)c3ccccc3)CC2)cc(OC)c1 | 5.1 |
| COCC1CCN(C(=O)CC2C(=O)NCCN2Cc2cccc(Oc3ccccc3)c2)CC1 (centres unmarked) | 5.98 |
| N#Cc1ccc(C(=O)Nc2cccc3ccccc23)c(F)c1 | 10.3 |
| CCN(CC)CC(=O)NN(Cc1ccccc1)c1ccccc1.O=C(O)C(=O)O | -73.6 |
| O=C(O)C(=O)O.O=C(c1ccccc1)c1ccc(OCC(O)CNCc2ccc(F)cc2)cc1 (centres unmarked) | -68.2 |
| COc1ccc(N2CC(C(=O)OCC(=O)c3ccccc3)CC2=O)cc1 (centres unmarked) | -9.34 |

| Structure (SMILES) | hERG current change (%, negative = inhibition) at 10uM [%] |
| --- | --- |
| COc1ccccc1N1CCN(C2CCCN(C(=O)c3cc(C)oc3C)C2)CC1 (centres unmarked) | -3.28 |
| COc1cc2c(cc1OC)-c1nnc(-c3ccco3)n1C1(CCCC1)C2 | -8.01 |
| O=c1[nH]c2c(=O)[nH]cnc2nc1-c1ccccc1 | 8.55 |
| COCCNC(=O)CSc1n[nH]c(=O)n1CCc1ccccc1 | 19 |
| CC(C(=O)Nc1cccc(C#N)c1)N(C)CCOc1ccccc1 (centres unmarked) | -14.9 |
| Cc1ccc(C)c(NC(=O)CN2C(=O)CNC2=O)c1 | 0.955 |
| O=C(CN(CC1CCCO1)C(=O)CNS(=O)(=O)c1ccc(F)cc1)NCc1ccc(F)cc1 (centres unmarked) | -2.38 |
| CCCCCCCC(=O)NNC(=O)CC(=O)Nc1ccccc1C(=O)O | -4.89 |
| O=[N+]([O-])c1ccc(NCc2ccc(Cl)cc2)c2ccncc12 | 18.5 |
| CC1=C(C(=O)Nc2ccccc2)C2(CCCCC2)C(C(N)=O)C(=S)N1 (centres unmarked) | -6.36 |
| COc1ccc(OC)c(/C=N/NC(=O)CCc2n[nH]c(=O)[nH]c2=O)c1 | 4.8 |
| CSc1ccc(S(=O)(=O)N2CCC(C(=O)NCc3cccnc3)CC2)cc1 | -28.4 |
| Cc1cc(-c2ccccc2)n2nc(C)c(-c3ccccc3)c2n1 | 8.7 |
| COC(CNC(=O)c1ccc(-n2c(=S)[nH]c3ccccc3c2=O)cc1)OC | -1.61 |
| COc1ccc(C2=NS(=O)(=O)N(C)C(C(=O)N(C)Cc3ccccc3)=C2)cc1 | -69.9 |
| COc1ccc(S(=O)(=O)NCCSCc2ccccc2C)cc1Br | -1.29 |
| CCOC(=O)c1cccc(NC(=O)/C(=C\c2ccccc2)NC(=O)c2ccccc2Cl)c1 | 3.62 |
| O=C(c1ccc(F)cc1)c1cc2ccc(O)cc2oc1=O | 3.93 |
| CCN1C(=O)[C@@H]2C(C(=O)c3cnccn3)=NN[C@@H]2C1=O | 16.5 |

| Structure (SMILES) | hERG current change (%, negative = inhibition) at 10uM [%] |
| --- | --- |
| N/C(COc1cccc(Cl)c1)=N\NS(=O)(=O)c1ccccc1 | 8.21 |
| CCOC(=O)NC(=S)Nc1ccc(OC)cc1 | 11.3 |
| CC(C)c1ccc(OCc2nnc(SCC(=O)N3CCCCC3)o2)cc1 | -15.3 |
| COCC(C)n1c(SCC(=O)Nc2oc(C)c3c(C)n[nH]c(=O)c23)nc2ccccc2c1=O (centres unmarked) | 6.9 |
| CCn1cc(/C=C(\NC(=O)c2ccc(OC)c(OC)c2)C(=O)NCCCO)c2ccccc21 | 18.2 |
| Cc1cc(C)cc(NC(=O)C(Sc2nnc(C)c(=O)[nH]2)c2ccccc2)c1 (centres unmarked) | 12 |
| Cc1onc(-c2c(F)cccc2Cl)c1C(=O)NCc1ccccn1 | 1.98 |
| CCOC(=O)C1=C(CSc2nc3c(cc2C#N)CN(C)CC3)OC(N)=C(C#N)C1c1ccncc1 (centres unmarked) | 3.37 |
| COc1ccccc1CNC(=O)c1ccccc1OC | -5.88 |
| COc1ccc(OC)c(/C=C/C(=O)N2CCN(S(=O)(=O)c3cc(C)ccc3C)CC2)c1 | -14.1 |
| CCN(c1ccccc1)S(=O)(=O)c1ccc2[nH]cc(C(=O)N3CCOCC3)c(=O)c2c1 | 13.5 |
| O=C(CSc1nc2c(sc3ccccc32)c(=O)n1CCO)NCc1ccco1 | -18.2 |
| O=C(CS(=O)CC(=O)N(CC(=O)NC1CCCC1)C1CCCCC1)Nc1ccc(F)cc1 (centres unmarked) | -26.8 |
| O=C(Nc1cccc(NC(=O)c2cccs2)c1)c1ccc2c(c1)OCCO2 | 4.94 |
| O=C(Nc1ccc(C(=O)N2CCCCC2)cc1)c1cccc([N+](=O)[O-])c1 | -16.4 |
| COc1ccc(/C=C/C(=O)NCCN2CCOCC2)cc1OC | 26.6 |
| O=S(=O)(c1ccc(F)c(F)c1F)N1CCN(C(=S)NC2CC3CCC2C3)CC1 (centres unmarked) | 19.6 |
| Cc1cc(C)c2nc(SCC(=O)Nc3cc(C)on3)c(C#N)cc2c1 | 6.66 |
